Measurements: PubChem BioAssay AID463173 (ICCB-Longwood Screening Facility, Harvard Medical School, 2010)
In all, about 52,000 compounds went through this assay and about 1,700 (3.3%) were called active. Cut-off read from the data, not from the text of the source: active = survival mostly below about 52% (no sharp cut-off); inactive = mostly above about 56%. This is one part of the list.

Test system: Wild type
Assay: growth inhibition of S. aureus wild type versus tarO mutant, primary screen, teichoic acid synthesis inhibitors, RN4220, OD600 (AID 463173)
Conditions: S. aureus RN4220 wild type/DeltatarO growth, OD600, 18 h, active compounds read low, screened at 18.75 µg/mL (by protocol)

Compound | survival
N#Cc1c(-n2ncnc2-c2ccc(F)cc2)sc2c1CCCCC2 | active: -2%
O=C(C1CCN(S(=O)(=O)c2ccc(Br)s2)CC1)N1CCN(c2cccc(C(F)(F)F)c2)CC1 | inactive: 93%
O=C(CSCc1cnn(-c2ccccc2)c1-n1cccc1)NCc1cccc(Cl)c1 | inactive: 91%
CCCSc1ncc(Cl)c(C(=O)Nc2sc3c(c2C(=O)OC)CCCC3)n1 | inactive: 84%
CCC(C)NC(=O)CCC(=O)N1Cc2ccccc2Oc2ncccc21 (stereo unspecified) | inactive: 121%
CC1=C(C(=O)N2CCN(c3ccccc3)CC2)C2(CCCCC2)OC1=O | inactive: 82%
COc1cc(NC(=O)Cn2c(=O)ccc3cc(S(=O)(=O)N4CCCC4)ccc32)cc(OC)c1 | inactive: 74%
CC(C)(C)NC(=O)c1oc2ccccc2c1NC(=O)c1ccccc1F | inactive: 88%
Cc1ccc(S(=O)(=O)Nc2ccc3nc(-c4ccc(F)cc4)oc3c2)cc1 | inactive: 24%
COc1ccc(/C=C\c2onc(C)c2S(=O)(=O)N2CCC(C(=O)Nc3cccc(OC)c3)CC2)cc1 | inactive: 121%
CCOC(=O)c1c(C)[nH]c(C)c1S(=O)(=O)N(C)CC(=O)Nc1ccc(CC)cc1 | inactive: 99%
Cc1ccc(-n2nc(C)c(C(=O)O)c2-n2cccc2)cc1 | inactive: 90%
Cc1ccc(CNC(=O)c2c(C)oc3ncnc(N4CCOCC4)c23)cc1 | active: -1%
COc1ccc(CNC(=O)c2cc3ccccn3n2)cc1OC | inactive: 127%
CCc1ccc(-n2c(=O)c3c4c(sc3n(CC(=O)c3ccc(Br)cc3)c2=O)CCC4)cc1 | inactive: 125%
O=C(NCc1ccccc1)c1cc2ccc3cccnc3c2[nH]1 | inactive: 73%
CCCc1nc(SCC(=O)N2CCCC2)c2ccccc2n1 | inactive: 107%
O=C(CCn1nnc(-c2cccs2)n1)NCc1ccccc1Cl | inactive: 112%
C=CCNc1nnc(Cl)c2ccccc12 | inactive: 110%
Cc1c(C(=O)NCCc2ccccc2)oc2ccccc12 | inactive: 118%
Cc1cccc(C)c1NC(=O)Cn1nnc(C(=O)NCc2ccc(F)cc2)c1N | inactive: 78%
Cc1ccccc1CCNC(=O)C1CCN(S(=O)(=O)c2ccc3c(ccn3C)c2)CC1 | inactive: 63%
CCOc1ccc(NC(=O)CSc2nnc(C)n2CC2CCCO2)cc1 (stereo unspecified) | inactive: 106%
O=C(NCC1(c2ccccc2)CCCC1)C(=O)Nc1cccc(Br)c1 | inactive: 96%
Cn1c(=O)c2c(nc(Oc3ccccc3Cl)n2Cc2ccc(C#N)cc2)n(C)c1=O | inactive: 81%
COc1cc(Nc2ncc3c(n2)CCN(Cc2cccc(C)c2)C3)cc(OC)c1 | inactive: 75%
